# Assay results published in PubChem BioAssay AID624173 (National Center for Advancing Translational Sciences (NCATS), 2012).
# In all, about 410,000 compounds went through this assay and about 490 (0.12%) were called active. The shares of active, inactive and inconclusive entries below differ from those in the screen. The call rests on the fitted dose curve; in most records, active means well fitted inhibition curve with a large enough effect; inconclusive means small, poorly fitted or top-dose-only effect; inactive means flat fitted curve, though single readings scatter. Potencies of inconclusive entries are doubtful fits and often do not repeat.
# Target: pyruvate kinase (Trypanosoma brucei) (UniProt Q57TT1)
# Test: qHTS of Trypanosoma Brucei Inhibitors; further: nearly all actives have a fitted effect of over 50% in size
# Details: TbPYK enzyme, Kinase-Glo Plus ATP luminescence, 45 min; series mostly up to 76.8 µM; activity, negative = inhibition: at the top concentration
# Method in brief: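 Glycolytic pyruvate kinase of T. brucei was incubated with substrate, test compound and 130 uM ADP for 45 minutes at room temperature. Luminescent Kinase-Glo Plus signal was measured after 10 minutes.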
# On the % scale 0 is the no-effect control and ±100 the full control effect; potency means the concentration at half of the fitted maximal effect; tags describe the fitted curve by direction and shape.
Compound,Potency,"activity, negative = inhibition"
COc1cc2c(cc1NC(=O)COc1ccccc1OC)oc1ccccc12,"inconclusive: 50.1 µM [inhibitor, single point]",–
CC(Sc1nc(N)cc(=O)[nH]1)C(=O)N1CCOCC1 (configuration not stated),–,inactive: -1.33%
O=[N+]([O-])c1ccc(N/N=C/c2ccc(O)c(O)c2O)c(S(=O)(=O)N2CCOCC2)c1,"inconclusive: 20 µM [inhibitor, partial curve, poor fit]",–
CCC1(C)Cc2c(sc3[nH]c(=O)[nH]c(=O)c23)CS1 (configuration not stated),"inconclusive: 44.7 µM [inhibitor, partial curve, poor fit]",–
O=c1cc2oc3cc(O)c(O)cc3c(-c3ccccc3[N+](=O)[O-])c-2cc1O,"inconclusive: 28.2 µM [inhibitor, partial curve, poor fit]",–
CCc1ccc(S(=O)(=O)ON2C(=O)c3ccccc3C2=O)cc1,"inconclusive: 17.8 µM [inhibitor, partial curve, poor fit]",–
Cc1ccc(-c2n[nH]c(=S)n2/N=C/c2ccncc2)cc1,"inconclusive: 2.24 µM [inhibitor, full curve, poor fit]",–
CCN(CC)c1ccc(N=C2C=CC(=O)C=C2NC(C)=O)cc1,"inconclusive: 17.8 µM [inhibitor, single point]",–
CCn1c(CSCc2ccccc2)n[nH]c1=S,"inconclusive: 15.8 µM [inhibitor, partial curve]",–
COc1ccc(/C=N/Nc2nccnc2Cl)cc1,"inconclusive: 31.6 µM [inhibitor, partial curve]",–
CCNc1ccc2noc3c2c1C(=O)c1ccccc1-3,"inconclusive: 50.1 µM [inhibitor, single point]",–
CC(C)(CNC(=O)C1CCN(S(=O)(=O)c2cc([N+](=O)[O-])ccc2Cl)CC1)N1CCOCC1,–,inactive: -4.3%
Cc1noc(NS(=O)(=O)c2ccc(NC(=O)CSc3nc4c(cc3C#N)CCC4)cc2)c1C,"inconclusive: 28.2 µM [inhibitor, partial curve]",–
Cc1scc(-c2n[nH]c(=S)n2C(C)c2ccccc2)c1C (configuration not stated),active: 2.24 µM,–
CC(C)c1cc2cc3ccc(=O)oc3cc2o1,–,inactive: -0.591%
O=C1C=CC2=C3c4cc(O)c(O)cc4CC3(O)COC2=C1O (configuration not stated),"inconclusive: 12.6 µM [inhibitor, partial curve, poor fit]",–
Cc1ccc(Cn2cc(CN3CC(N4CCCC4)CS3(=O)=O)nn2)cc1 (configuration not stated),–,inactive: -2.22%
O=C(CC1C(=O)NCCN1CC1CCCCC1)NCc1ccc(Cl)cc1 (configuration not stated),–,inactive: 0.461%
O=C(Oc1ccc(N(Cc2cccs2)C2=NS(=O)(=O)c3ccccc32)cc1)c1ccccc1Cl,"inconclusive: 22.4 µM [inhibitor, partial curve]",–
CCOC(=O)c1ccc(NC(=O)c2c(NCc3cccc(OC)c3)sc3c2CCC3)cc1,"inconclusive: 31.6 µM [inhibitor, partial curve, poor fit]",–
Cc1ccccc1Nc1cc(C(=O)NCC2CCCO2)c2ccccc2n1 (configuration not stated),"inconclusive: 31.6 µM [inhibitor, partial curve]",–
S=c1[nH]nc([C@@H]2C[C@H]2c2ccccc2)n1-c1ccccc1Cl,active: 5.01 µM,–
CCn1c(-c2ccncc2)n[nH]c1=S,"inconclusive: 15.8 µM [inhibitor, partial curve]",–
O=C(NCCCNC(=O)c1cccs1)c1cccs1,"inconclusive: 22.4 µM [inhibitor, partial curve]",–

Compound,Potency,"activity, negative = inhibition"
COc1cc(/C=N\NC(=O)c2ccc(Cn3nc([N+](=O)[O-])c(Cl)c3C)o2)ccc1O,–,inactive: -9.87%
Cc1ccccc1NS(=O)(=O)c1ccc(C)c(NS(C)(=O)=O)c1C,–,inactive: -1.93%
N#Cc1ccc(Oc2cccc3cccnc23)c([N+](=O)[O-])c1,–,inactive: 3.11%
Cc1ccc(N=Nc2[nH]c3ccccc3c2O)cc1,–,inactive: -27.9%
Cc1cc(OCC(=O)NNC(=S)NCC2CCCO2)cc(C)c1Cl (configuration not stated),"inconclusive: 12.6 µM [inhibitor, partial curve]",–
Cc1ccc(C)c(N/C(N)=N/c2nc(C)cc(C)n2)c1,–,inactive: -0.212%
Cc1ccc(NCc2cccn2-c2nnc(N3CCC(C(=O)NCc4ccccc4C)CC3)s2)cc1,–,inactive: 0.668%
CCOc1cccc(C(=O)Nc2ccc(N3CCCC3)cc2)c1,"inconclusive: 10 µM [inhibitor, partial curve]",–
COC(=O)c1sc(NC(=O)c2ccc(Cn3cc(Cl)cn3)o2)c(C#N)c1C,"inconclusive: 20 µM [inhibitor, partial curve, poor fit]",–
CCOc1cc2c(c3c1C(c1ccccc1)N(S(=O)(=O)c1ccc(C)cc1)C3)C(=O)C=CC2=O (configuration not stated),"inconclusive: 3.16 µM [inhibitor, full curve, poor fit]",–
Cc1sc2ccccc2[n+]1CCC(C)S(=O)(=O)[O-] (configuration not stated),–,inactive: -10.7%
COc1ccc(-c2nc3ccccc3[nH]2)cc1,"inconclusive: 25.1 µM [inhibitor, partial curve, poor fit]",–
Cc1ccc2nc(-c3ccccn3)c(N)n2c1,"inconclusive: 22.4 µM [inhibitor, partial curve]",–
CSC1CCCCC1(O)CSc1nc2c(cc1C#N)CCCC2 (configuration not stated),"inconclusive: 31.6 µM [inhibitor, partial curve, poor fit]",–
O=c1c2ccccc2[se]n1-c1ccccc1,active: 8.91 µM,–
CCCCC(CCC(=O)O)(C(=O)OCC)c1csc(N)n1 (configuration not stated),"inconclusive: 50.1 µM [inhibitor, single point]",–
COc1ccc2c(c1)CCCC(Br)C2=O (configuration not stated),"inconclusive: 25.1 µM [inhibitor, partial curve]",–
O=C(C1CCCCC1)N1CCC(O)(c2ccc(Cl)cc2)CC1,"inconclusive: 5.62 µM [inhibitor, full curve]",–
CCOC(=O)c1c(NC(=S)NC)sc2c1CC(C)(C)SC2,"inconclusive: 14.1 µM [inhibitor, partial curve]",–
CCC1(c2ccccc2)NC(=S)N(c2ccc(C)c(C)c2)N1 (configuration not stated),"inconclusive: 11.2 µM [inhibitor, partial curve, poor fit]",–
Cc1sc2c3ccsc3ccc2[n+]1C,active: 8.91 µM,–
COc1ccc(-c2sc3ccccc3c2-c2ccc(OCCN3CCCCC3)cc2)cc1,–,inactive: -1.05%
O=c1c(-c2cccs2)nc2cncnc2n1C1CC1,–,inactive: 3.73%
O=C(CN1CCN(c2ccc(O)cc2)CC1)Nc1cc(S(=O)(=O)N2CCCC2)ccc1Cl,"inconclusive: 28.2 µM [inhibitor, partial curve]",–

Compound,Potency,"activity, negative = inhibition"
Cc1cccc(-n2c(C)n[nH]c2=S)c1,"inconclusive: 25.1 µM [inhibitor, partial curve]",–
CCN(CC)c1ccc(NC(=O)c2ccc3c(c2)OCO3)c(C)c1,"inconclusive: 35.5 µM [inhibitor, partial curve, poor fit]",–
S=c1[nH]nc(-c2ccccc2)n1CC1CCCO1 (configuration not stated),"inconclusive: 31.6 µM [inhibitor, partial curve, poor fit]",–
COc1cc(/C=C2/S/C(=N/S(=O)(=O)Cc3ccccc3)NC2=O)c([N+](=O)[O-])cc1OC,"inconclusive: 14.1 µM [inhibitor, partial curve, poor fit]",–
CCOc1ccccc1N1CC(C(=O)N2CCc3ccccc3C2)CC1=O (configuration not stated),"inconclusive: 28.2 µM [inhibitor, single point]",–
O=[N+]([O-])c1cc(S(=O)(=O)N2CCCCC2)ccc1NCCCN1CCOCC1,–,inactive: -11.7%
CN(C)c1cccc(N=C2C=C(N3CCOCC3)CC(C)(C)C2)c1,"inconclusive: 50.1 µM [inhibitor, single point]",–
Cc1cccc2cc3c(nc12)SC(=NCC1CCCO1)N(Cc1ccco1)C3 (configuration not stated),"inconclusive: 28.2 µM [inhibitor, partial curve, poor fit]",–
Cc1ccc(-c2cc(-c3ccc(C)o3)nc(N)c2C#N)cc1,active: 28.2 µM,–
CCn1c(=S)[nH]c2scc(-c3cccs3)c2c1=O,"inconclusive: 35.5 µM [inhibitor, partial curve]",–
CC(C)NC(=O)c1onc(CSc2ccc(F)c(F)c2)c1C(=O)O,"inconclusive: 35.5 µM [inhibitor, partial curve, poor fit]",–
CC(C)(C)c1ccc(-c2noc(CCC(=O)NCc3ccco3)n2)cc1,–,inactive: -2.36%
CCCCn1nnnc1NCc1cccnc1,"inconclusive: 31.6 µM [inhibitor, partial curve, poor fit]",–
N#C/C(=C\c1cccs1)C(=O)Nc1nccs1,"inconclusive: 31.6 µM [inhibitor, single point]",–
O=C(Nc1ccccc1C(F)(F)F)c1noc2c1CCCCC2,–,inactive: 0.64%
C#CC[N+]1(CC#Cc2ccccc2)CCCCC1,–,inactive: 2.06%
COC(Cc1n[nH]c(=S)n1-c1ccccc1)OC,"inconclusive: 28.2 µM [inhibitor, partial curve, poor fit]",–
COCCN1CCn2c(nc3cc([N+](=O)[O-])ccc32)C1,–,inactive: 0.835%
COc1ccccc1CNC(=O)Cn1cc([N+](=O)[O-])ccc1=O,–,inactive: -7%
COc1ccc(Cn2c(=S)[nH]c3ccsc3c2=O)cc1,"inconclusive: 22.4 µM [inhibitor, partial curve, poor fit]",–
CNC(=S)NNC(=O)c1cccn(Cc2cccc(C(F)(F)F)c2)c1=O,"inconclusive: 14.1 µM [inhibitor, partial curve]",–
CCSc1nc(=S)cc(C)[nH]1,"inconclusive: 28.2 µM [inhibitor, partial curve, poor fit]",–
CCc1ccn2cc(-c3ccc4c(c3)OCO4)nc2c1,"inconclusive: 28.2 µM [inhibitor, single point]",–
Cc1c(CBr)[n+](=O)c2c(n1[O-])C(Br)CCC2Br (configuration not stated),"inconclusive: 8.91 µM [inhibitor, partial curve]",–
